# Reference: the supplement of paper PMC12217912
# This is one part of the list. Sequences were assembled here from the parent chain. Values near 0.05 are background.
# B1: TEV protease; numbered along this chain (parent)
# chain: MGESLFKGPRDYNPISSSICHLTNESDGHTTSLYGIGFGPFIITNKHLFRRNNGTLVVQSLHGVFKVKDTTTLQQHLVDGRDMIIIRMPKDFPPFPQKLKFREPQREERICLVTTNFQTKSMSSMVSDTSCTFPSGDGIFWKHWIQTKDGQCGSPLVSTRDGFIVGIHSASNFTNTNNYFTSVPKNFMELLTNQEAQQWVSGWRLNADSVLWGGHKVFMVKPEEPFQPVKEATQL
# Variants of: B1
# Assay: raw area under fraction-flipped curve 0-4 h after induction (AUC4h, not background-subtracted), DNA-recorder readout of cleavage of the substrate (dimensionless); higher = more cleavage of the substrate by the protease variant
# Conditions: temperature: 34 °C; time window: 0-4 h after rhamnose induction
# Protocol: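 In vivo DNA recorder in E. coli TOP10(DE3) ΔrhaA at 34 °C. Each TEVp single-site mutant (parent TEVp 0) is paired with a single-site variant of the 7-mer TEVs (canonical ENLYFQ|S). The substrate sits between flexible linkers in a Bxb1-sfGFP-TEVs-SsrA fusion, so cleavage stabilises Bxb1 and speeds flipping of a recombination array, read by NGS. The value is the raw area under the fraction-flipped curve over 0-4 h after rhamnose induction (AUC4h), with ≥20 reads per time point. It is not background-subtracted; inactive controls average about 0.047.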
# 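Note: Bxb1 expression induced with 0.2% (w/v) L-rhamnose at OD600 near 0.5, cultures sampled hourly, flipped fraction per protease–substrate barcode pair counted by paired-end Illumina sequencing.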
Variant,area with substrate ENLAFQS,area with substrate ENLCFQS,area with substrate ENLDFQS,area with substrate ENLFFQS,area with substrate ENLGFQS,area with substrate ENLHFQS,area with substrate ENLIFQS,area with substrate ENLKFQS,area with substrate ENLLFQS,area with substrate ENLNFQS,area with substrate ENLQFQS,area with substrate ENLRFQS,area with substrate ENLVFQS,area with substrate ENLWFQS,area with substrate ENLEFQS,area with substrate ENLPFQS,area with substrate ENLSFQS,area with substrate ENLTFQS,area with substrate ENLMFQS
MGESLFKGPRDYNPISSSIAHLTNESDGHTTSLYGIGFGPFIITNKHLFRRNNGTLVVQSLHGVFKVKDTTTLQQHLVDGRDMIIIRMPKDFPPFPQKLKFREPQREERICLVTTNFQTKSMSSMVSDTSCTFPSGDGIFWKHWIQTKDGQCGSPLVSTRDGFIVGIHSASNFTNTNNYFTSVPKNFMELLTNQEAQQWVSGWRLNADSVLWGGHKVFMVKPEEPFQPVKEATQL [C20A],0.0886,0.0586,0.0653,0.081,0.0494,0.0762,0.0703,0.0732,0.0735,0.0719,0.0821,0.0609,0.0887,0.0644,,,,,
MQESLFKGPRDYNPISSSICHLTNESDGHTTSLYGIGFGPFIITNKHLFRRNNGTLVVQSLHGVFKVKDTTTLQQHLVDGRDMIIIRMPKDFPPFPQKLKFREPQREERICLVTTNFQTKSMSSMVSDTSCTFPSGDGIFWKHWIQTKDGQCGSPLVSTRDGFIVGIHSASNFTNTNNYFTSVPKNFMELLTNQEAQQWVSGWRLNADSVLWGGHKVFMVKPEEPFQPVKEATQL [G2Q],0.0731,0.0682,0.0673,0.0825,0.0534,0.0741,0.0955,,,0.0497,0.0808,0.0736,,0.0558,0.0616,0.0649,0.0571,0.0645,
MGEPLFKGPRDYNPISSSICHLTNESDGHTTSLYGIGFGPFIITNKHLFRRNNGTLVVQSLHGVFKVKDTTTLQQHLVDGRDMIIIRMPKDFPPFPQKLKFREPQREERICLVTTNFQTKSMSSMVSDTSCTFPSGDGIFWKHWIQTKDGQCGSPLVSTRDGFIVGIHSASNFTNTNNYFTSVPKNFMELLTNQEAQQWVSGWRLNADSVLWGGHKVFMVKPEEPFQPVKEATQL [S4P],0.0477,,0.0661,0.0989,,0.0744,0.0758,0.0765,,0.0515,,0.0912,,0.0592,0.0577,0.0635,0.0615,,
MGEVLFKGPRDYNPISSSICHLTNESDGHTTSLYGIGFGPFIITNKHLFRRNNGTLVVQSLHGVFKVKDTTTLQQHLVDGRDMIIIRMPKDFPPFPQKLKFREPQREERICLVTTNFQTKSMSSMVSDTSCTFPSGDGIFWKHWIQTKDGQCGSPLVSTRDGFIVGIHSASNFTNTNNYFTSVPKNFMELLTNQEAQQWVSGWRLNADSVLWGGHKVFMVKPEEPFQPVKEATQL [S4V],0.0715,0.0882,0.0671,0.0824,,,0.104,0.0912,0.0767,0.0585,,,,,0.0741,0.0539,0.0659,0.0813,
MGEKLFKGPRDYNPISSSICHLTNESDGHTTSLYGIGFGPFIITNKHLFRRNNGTLVVQSLHGVFKVKDTTTLQQHLVDGRDMIIIRMPKDFPPFPQKLKFREPQREERICLVTTNFQTKSMSSMVSDTSCTFPSGDGIFWKHWIQTKDGQCGSPLVSTRDGFIVGIHSASNFTNTNNYFTSVPKNFMELLTNQEAQQWVSGWRLNADSVLWGGHKVFMVKPEEPFQPVKEATQL [S4K],0.0664,0.127,0.0662,0.0926,0.075,,0.076,0.0726,,0.0462,,,0.0954,0.074,,0.0621,0.0436,,0.0941
MGESLFKGPRDYNPISSSQCHLTNESDGHTTSLYGIGFGPFIITNKHLFRRNNGTLVVQSLHGVFKVKDTTTLQQHLVDGRDMIIIRMPKDFPPFPQKLKFREPQREERICLVTTNFQTKSMSSMVSDTSCTFPSGDGIFWKHWIQTKDGQCGSPLVSTRDGFIVGIHSASNFTNTNNYFTSVPKNFMELLTNQEAQQWVSGWRLNADSVLWGGHKVFMVKPEEPFQPVKEATQL [I19Q],0.0528,,0.0456,0.0815,,0.0649,0.115,0.0648,,,0.0759,0.0705,,0.0748,,0.074,0.0674,,0.0648
MGESLFKGPRDYNPISSSTCHLTNESDGHTTSLYGIGFGPFIITNKHLFRRNNGTLVVQSLHGVFKVKDTTTLQQHLVDGRDMIIIRMPKDFPPFPQKLKFREPQREERICLVTTNFQTKSMSSMVSDTSCTFPSGDGIFWKHWIQTKDGQCGSPLVSTRDGFIVGIHSASNFTNTNNYFTSVPKNFMELLTNQEAQQWVSGWRLNADSVLWGGHKVFMVKPEEPFQPVKEATQL [I19T],0.0636,,0.0674,,0.0655,0.0702,,,0.0637,0.0589,,0.0654,0.0631,0.0682,0.0616,0.0495,0.0784,,
MGGSLFKGPRDYNPISSSICHLTNESDGHTTSLYGIGFGPFIITNKHLFRRNNGTLVVQSLHGVFKVKDTTTLQQHLVDGRDMIIIRMPKDFPPFPQKLKFREPQREERICLVTTNFQTKSMSSMVSDTSCTFPSGDGIFWKHWIQTKDGQCGSPLVSTRDGFIVGIHSASNFTNTNNYFTSVPKNFMELLTNQEAQQWVSGWRLNADSVLWGGHKVFMVKPEEPFQPVKEATQL [E3G],0.0623,0.0612,0.0603,0.0753,0.0668,0.0615,0.0579,0.0657,,0.0696,,0.0749,0.0775,0.0681,0.0685,0.0382,0.0647,0.0819,
MGESLFKGPRDYNPISSSICSLTNESDGHTTSLYGIGFGPFIITNKHLFRRNNGTLVVQSLHGVFKVKDTTTLQQHLVDGRDMIIIRMPKDFPPFPQKLKFREPQREERICLVTTNFQTKSMSSMVSDTSCTFPSGDGIFWKHWIQTKDGQCGSPLVSTRDGFIVGIHSASNFTNTNNYFTSVPKNFMELLTNQEAQQWVSGWRLNADSVLWGGHKVFMVKPEEPFQPVKEATQL [H21S],0.0651,,0.0604,0.0811,0.058,0.0852,0.056,0.0841,0.0759,0.0656,0.0698,0.073,0.0738,,0.06,0.0736,0.0566,0.0786,0.0713
MGESLFKGPRDYNPISSFICHLTNESDGHTTSLYGIGFGPFIITNKHLFRRNNGTLVVQSLHGVFKVKDTTTLQQHLVDGRDMIIIRMPKDFPPFPQKLKFREPQREERICLVTTNFQTKSMSSMVSDTSCTFPSGDGIFWKHWIQTKDGQCGSPLVSTRDGFIVGIHSASNFTNTNNYFTSVPKNFMELLTNQEAQQWVSGWRLNADSVLWGGHKVFMVKPEEPFQPVKEATQL [S18F],0.0698,0.0647,0.0663,0.0798,0.0709,0.0657,0.0856,0.0736,0.0548,0.0645,0.0663,0.0779,0.096,0.0503,0.0682,0.0569,0.0574,0.0808,0.0571
MGESLFKGPRDYNPISSVICHLTNESDGHTTSLYGIGFGPFIITNKHLFRRNNGTLVVQSLHGVFKVKDTTTLQQHLVDGRDMIIIRMPKDFPPFPQKLKFREPQREERICLVTTNFQTKSMSSMVSDTSCTFPSGDGIFWKHWIQTKDGQCGSPLVSTRDGFIVGIHSASNFTNTNNYFTSVPKNFMELLTNQEAQQWVSGWRLNADSVLWGGHKVFMVKPEEPFQPVKEATQL [S18V],0.0696,,0.0618,0.0819,,0.0789,,0.0764,0.07,0.0657,0.0829,0.0876,0.105,,0.0758,0.0668,0.0608,,
MGESLFKGPRDYNPISSYICHLTNESDGHTTSLYGIGFGPFIITNKHLFRRNNGTLVVQSLHGVFKVKDTTTLQQHLVDGRDMIIIRMPKDFPPFPQKLKFREPQREERICLVTTNFQTKSMSSMVSDTSCTFPSGDGIFWKHWIQTKDGQCGSPLVSTRDGFIVGIHSASNFTNTNNYFTSVPKNFMELLTNQEAQQWVSGWRLNADSVLWGGHKVFMVKPEEPFQPVKEATQL [S18Y],0.0368,,0.0603,0.0756,,0.0648,,0.0867,0.0614,0.0644,,,,0.0621,0.0579,,0.062,,
MGESQFKGPRDYNPISSSICHLTNESDGHTTSLYGIGFGPFIITNKHLFRRNNGTLVVQSLHGVFKVKDTTTLQQHLVDGRDMIIIRMPKDFPPFPQKLKFREPQREERICLVTTNFQTKSMSSMVSDTSCTFPSGDGIFWKHWIQTKDGQCGSPLVSTRDGFIVGIHSASNFTNTNNYFTSVPKNFMELLTNQEAQQWVSGWRLNADSVLWGGHKVFMVKPEEPFQPVKEATQL [L5Q],0.0627,0.0822,0.066,0.102,,0.065,0.0943,0.086,,,0.0476,0.0704,0.115,0.0704,0.0518,,0.0745,,
MGESLFKGPIDYNPISSSICHLTNESDGHTTSLYGIGFGPFIITNKHLFRRNNGTLVVQSLHGVFKVKDTTTLQQHLVDGRDMIIIRMPKDFPPFPQKLKFREPQREERICLVTTNFQTKSMSSMVSDTSCTFPSGDGIFWKHWIQTKDGQCGSPLVSTRDGFIVGIHSASNFTNTNNYFTSVPKNFMELLTNQEAQQWVSGWRLNADSVLWGGHKVFMVKPEEPFQPVKEATQL [R10I],0.0474,0.0723,,0.0922,,,0.0768,,,0.0686,,0.0704,,,,0.0581,,,
MGESLFKGPLDYNPISSSICHLTNESDGHTTSLYGIGFGPFIITNKHLFRRNNGTLVVQSLHGVFKVKDTTTLQQHLVDGRDMIIIRMPKDFPPFPQKLKFREPQREERICLVTTNFQTKSMSSMVSDTSCTFPSGDGIFWKHWIQTKDGQCGSPLVSTRDGFIVGIHSASNFTNTNNYFTSVPKNFMELLTNQEAQQWVSGWRLNADSVLWGGHKVFMVKPEEPFQPVKEATQL [R10L],0.0627,0.0867,0.0676,,,0.0716,,0.075,0.0914,0.0634,0.03,,,,,0.0522,,,
MGESLFKGPRRYNPISSSICHLTNESDGHTTSLYGIGFGPFIITNKHLFRRNNGTLVVQSLHGVFKVKDTTTLQQHLVDGRDMIIIRMPKDFPPFPQKLKFREPQREERICLVTTNFQTKSMSSMVSDTSCTFPSGDGIFWKHWIQTKDGQCGSPLVSTRDGFIVGIHSASNFTNTNNYFTSVPKNFMELLTNQEAQQWVSGWRLNADSVLWGGHKVFMVKPEEPFQPVKEATQL [D11R],0.0714,,0.0606,0.0881,,0.0786,,0.0824,,0.0811,0.0684,0.0789,0.0935,0.0794,0.0629,,0.0838,,
MGESLFKGPRKYNPISSSICHLTNESDGHTTSLYGIGFGPFIITNKHLFRRNNGTLVVQSLHGVFKVKDTTTLQQHLVDGRDMIIIRMPKDFPPFPQKLKFREPQREERICLVTTNFQTKSMSSMVSDTSCTFPSGDGIFWKHWIQTKDGQCGSPLVSTRDGFIVGIHSASNFTNTNNYFTSVPKNFMELLTNQEAQQWVSGWRLNADSVLWGGHKVFMVKPEEPFQPVKEATQL [D11K],0.0764,,0.0657,0.0945,0.073,0.0781,0.0688,0.0752,,0.0516,0.0708,0.0738,0.086,0.0814,,0.0643,0.0554,,
MGESLFKGARDYNPISSSICHLTNESDGHTTSLYGIGFGPFIITNKHLFRRNNGTLVVQSLHGVFKVKDTTTLQQHLVDGRDMIIIRMPKDFPPFPQKLKFREPQREERICLVTTNFQTKSMSSMVSDTSCTFPSGDGIFWKHWIQTKDGQCGSPLVSTRDGFIVGIHSASNFTNTNNYFTSVPKNFMELLTNQEAQQWVSGWRLNADSVLWGGHKVFMVKPEEPFQPVKEATQL [P9A],0.0608,0.0633,0.0637,,,0.0611,0.0854,0.0654,0.0704,0.0611,,0.0679,0.0906,,0.0824,0.0621,,0.0886,0.0696
